According to PubChem BioAssay AID504706 (National Center for Advancing Translational Sciences (NCATS), 2011):
Among all 320,000 compounds or so, about 200 (0.062%) were called active. This list was built around the results that the source calls inconclusive (neither active nor inactive); the mix of calls is not that of the screen. Calls come from the whole dose curve; as a rule, active = well fitted activation curve with a large enough effect; inconclusive = small, poorly fitted or top-dose-only effect; inactive = no such curve, though single readings can be large or run the other way. No potency is given beside an inconclusive call; the fits are too rough.

experiment: qHTS assay for re-activators of p53 using a Luc reporter; settings: H1299 p53-A138V BP100-luciferase reporter, luminescence, 24 h; series mostly up to 92.2 µM; note: nearly all actives have a fitted effect of over 45% in size
Summary of the method: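 p53-null H1299 cells stably carrying temperature-sensitive p53-A138V and a BP100-luciferase reporter were pinned with compounds (4-point, 1:5 series) and held 24 hrs at 37 deg C. Luminescence was read 10 min after detection reagent.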
Potency is the fitted concentration of half-maximal effect; tags give direction and shape of the fitted curve.

SMILES | Potency
O=C(c1cc(-c2cccs2)on1)N1CCCCC1 | inconclusive [activator, partial curve, poor fit]
Cc1ccc(/C(N)=N/OC(=O)CSc2ccccc2)cc1 | inactive
COCC(=O)Nc1ccc(OCc2ccccc2)cc1 | inconclusive [activator, full curve, poor fit]
CCOC(=O)CSC1=NC(=O)/C(=C/c2ccc(Br)cc2)S1 | inconclusive [activator, partial curve]
CC(=O)c1cccc(NC(=O)c2ccc3c(c2)C(=O)N(Cc2cccnc2)C3=O)c1 | inactive
O=C(Nc1cccc(Cl)c1)Nc1nc(-c2ccccc2)cs1 | inactive
CCn1nc(C)c(/C=N/NC(=O)c2c[nH]c3ccccc23)c1C | inconclusive [activator, partial curve, poor fit]
CC1CCCC(N2CCN(C(=O)c3ccc([N+](=O)[O-])cc3)CC2)C1 (stereo unspecified) | inconclusive [activator, single point]
CCc1ccc(/C=C2/Sc3ccccc3N(CC(=O)NCCCN3CCOCC3)C2=O)cc1 | inconclusive [activator, single point]
COc1ccc2nc(SCC(=O)NC3CCCCC3C)[nH]c2c1 (stereo unspecified) | inactive
Cc1ccc2cc(CCNC(=O)c3cccs3)c(=O)[nH]c2c1C | inconclusive [activator, partial curve, poor fit]
CN(CCOc1ccccc1)C(=O)C1CCN(C(=O)c2ccc(F)cc2)CC1 | inactive
Cc1cc(C(=O)Nc2ccc3c(c2)OCO3)cs1 | inconclusive [activator, partial curve, poor fit]
COc1ccc2cc(CCNC(=O)c3cccs3)c(=O)[nH]c2c1 | inconclusive [activator, partial curve, poor fit]
Cc1ccc(C(=O)OCC(=O)N2CCOCC2)cc1 | inconclusive [activator, partial curve, poor fit]
Cc1ccc(OCC(=O)Nc2sc3c(c2C#N)CCC3)cc1 | inconclusive [activator, partial curve, poor fit]
Cc1ccc(-c2cc3ncc(C#N)c(N)n3n2)cc1 | inactive
COc1cccc(/C=N/N2C(=O)CSC2=S)c1O | inconclusive [activator, partial curve, poor fit]
O=c1[nH]c(N/N=C/c2ccc(O)cc2)nc2ccccc12 | inconclusive [activator, full curve, poor fit]
COc1ccc(Br)cc1C1CC(=O)N2CN(C)CSC2=C1C#N (stereo unspecified) | inactive
O=C(O)/C=C/c1ccc2ccccc2n1 | inconclusive [activator, single point]
CCC(C)[C@H](NC(=O)N1CC(=O)Nc2ccccc21)C(=O)N1CCC[C@@H]1C(=O)O (stereo partly specified) | inactive
CCN(CC)c1ccc(/C=N/NC(=O)c2nnn(-c3nonc3N)c2C(C)C)c(O)c1 | inconclusive [activator, partial curve, poor fit]
O=C(c1cnn2c(C(F)F)cc(-c3ccccc3)nc12)N1CCc2ccccc21 | inactive

SMILES | Potency
CCN(CC)c1ccc(NC(=O)c2cncc(Br)c2)cc1 | inconclusive [activator, full curve, poor fit]
CCOc1ccc(NC(=O)CCNC(=O)Cn2ccc3ccccc3c2=O)cc1 | inactive
CCCC(=O)Nc1nnc(/C=C/c2ccc(OC)cc2)s1 | inactive
CC(=O)c1ccccc1-c1csc2ncnc(Sc3nnnn3C)c12 | inconclusive [activator, single point]
CC1CCN(CC2C(=O)O[C@@H]3C[C@@]4(C)CCC[C@H](C)C4=C[C@H]23)CC(C)(C)C1 (stereo partly specified) | inconclusive [activator, single point]
Cc1nc2ccccn2c1C(=O)/C=C/c1ccc(F)cc1 | inconclusive [activator, partial curve, poor fit]
S=c1nc2ccccc2c2nc(-c3ccccc3)[nH]n12 | inconclusive [activator, partial curve, poor fit]
COc1ccc(-c2nc3c(c(=O)[nH]c(=O)n3Cc3ccccc3)n2C)cc1 | inactive
O=C(CC1COc2ccccc2O1)NC1CCCCC1 (stereo unspecified) | inconclusive [activator, single point]
Cc1cc(-c2cccc([N+](=O)[O-])c2)nc2ccccc12 | inconclusive [activator, partial curve, poor fit]
C=C1CCN([C@H](C(=O)OCc2ccc(C)cc2)C(C)C)S(=O)(=O)c2ccccc21 | inactive
CCSc1nnc(-c2ccc(Cl)cc2Cl)o1 | inconclusive [activator, full curve, poor fit]
CC(C)(C)C1CCC(=NNC(=S)Nc2cccnc2)CC1 (stereo unspecified) | inactive
CCOCCN1CCN(c2c(CC)c(C)nc3cc(-c4cc(OC)cc(OC)c4)nn23)CC1 | inactive
CCOC(=O)c1cc(C(=O)NN)c(C)nc1C | inactive
O=C(c1cc(-c2ccc(F)cc2)on1)N1CCCc2ccccc21 | inactive
CC1(C)CNC(=O)c2sc(N3CCCCC3)nc2C1 | inconclusive [activator, partial curve, poor fit]
COc1cc(/C=N/NC(=O)CN2CCCCC2)ccc1OCc1ccc(Br)cc1 | inconclusive [activator, full curve, poor fit]
O=c1[nH]c(-c2ccccn2)nc2sc(-c3ccccc3)cc12 | inconclusive [activator, full curve, poor fit]
Cc1ccc(-c2csc(NC(=S)NC(=O)c3cc4ccccc4o3)n2)cc1 | inactive
CC#CCOC(=O)c1c(C)nc2sc3c(c2c1N)CCC(O)C3 (stereo unspecified) | inactive
N#C/C(=C/c1ccc(N2CCOCC2)o1)C(=O)Nc1ccccc1 | inconclusive [activator, single point]
CC(=O)Nc1sc(N/N=C\c2ccco2)nc1-c1cccs1 | inconclusive [activator, single point]
O=C(CC(Sc1ccc(Br)cc1)C(=O)O)c1ccc(Br)cc1 (stereo unspecified) | inconclusive [activator, single point]

SMILES | Potency
O=C(CSc1cccc2cccnc12)Nc1cc(C(=O)O)cc(C(=O)O)c1 | inactive
Cn1c(SCC(=O)NCC2CCCO2)ncc(C(=O)Nc2ccccc2)c1=O (stereo unspecified) | inconclusive [activator, single point]
Cc1ccc(SCC(=O)c2cc(C)c(OC(=S)N(C)C)c(C)c2)cc1 | inconclusive [activator, full curve, poor fit]
CC(=O)Nc1ccc(C(=O)Nc2ccncc2)cc1 | inconclusive [activator, single point]
CC(=O)Nc1cc(C(=O)OCC(=O)c2ccc(Cl)cc2Cl)ccc1C | inactive
CCc1ccc(OCC(=O)NNC(=S)NC(=O)C2CCCCC2)c(Br)c1 | inconclusive [activator, single point]
CCOC(=O)c1ccc2c(c1)nc(SCC(=O)c1ccco1)n2CC | inactive
CC(C)(C)NC(=S)Nc1ccc(Br)cc1 | inconclusive [activator, partial curve, poor fit]
C/C(=N/NC(=O)c1cc(C(C)C)[nH]n1)c1cccs1 | inconclusive [activator, full curve, poor fit]
O=C(NCCc1ccc(Cl)cc1)c1ccc2c(c1)OCO2 | inconclusive [activator, partial curve, poor fit]
COC(=O)c1cccc(NC(=O)Nc2ccc(Cl)c(Cl)c2)c1 | inactive
COc1ccc2c(c1)c(=O)cc(-c1ccccc1)n2C | inconclusive [activator, partial curve, poor fit]
CC(=O)NC(=S)Nc1sc2c(c1C#N)CCCCC2 | inconclusive [activator, partial curve, poor fit]
COCc1c(C(=O)N2CCc3ccccc32)oc2ccccc12 | inconclusive [activator, single point]
O=C(O)CCc1ccc(-c2ccc(Cl)cc2)o1 | inconclusive [activator, partial curve, poor fit]
COc1ccc(OC)c(NC(=O)c2[nH]c(C)c(C(C)=O)c2C)c1 | inconclusive [activator, single point]
CCCNC(=O)/C=C/c1ccc(C(C)C)cc1 | inconclusive [activator, partial curve, poor fit]
Cc1ccc(Cc2cnc(NC(=O)c3ccco3)s2)cc1 | inconclusive [activator, partial curve]
COC(=O)c1ccc(NC(=O)CCN2C(=O)NC(C)(C)C2=O)cc1 | inconclusive [activator, full curve, poor fit]
O=C(Nc1cccnc1)c1cc(-c2ccc(Cl)cc2)on1 | inactive
Cc1ccc2nc(-c3cccc(NC(=O)c4ccc5c(c4)OCCO5)c3)oc2c1 | inconclusive [activator, single point]
COc1cccc(/C=C/C(=O)OCC(=O)NCCC2=CCCCC2)c1OC | inactive
O=C(O)c1cccc(NC(=S)NC(=O)c2ccc(-c3ccc(Cl)cc3)o2)c1 | inconclusive [activator, single point]
